Test results reported in PubChem BioAssay AID624417 (National Center for Advancing Translational Sciences (NCATS), 2012).
In all, about 410,000 compounds went through this assay and about 6,400 (1.6%) were called active. This list was built around the results that the source calls inconclusive (neither active nor inactive); the mix of calls is not that of the screen. Calls come from the whole dose curve; as a rule, active = well fitted inhibition curve with a large enough effect; inconclusive = small, poorly fitted or top-dose-only effect; inactive = no such curve, though single readings can be large or run the other way. A potency beside an inconclusive call is a rough fit, not a confirmed value.

Biological target: Glucagon-like peptide 1 receptor (Homo sapiens) (UniProt P43220)
Assay: qHTS of GLP-1 Receptor Inverse Agonists (Inhibition Mode); note: nearly all actives have a fitted effect of over 55% in size
Details: HEK293 GLP-1R CRE-luciferase, luminescence, 24 h, GLP-1R form is constitutively active; series mostly up to 38.3 µM
Procedure, shortened: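 GLP-1R inverse agonism mode: basal reporter luminescence in engineered HEK293 cells measured after one day of compound exposure at 37 deg C, with a 12 min room-temperature detection step.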
Potency is the fitted concentration of half-maximal effect; tags give direction and shape of the fitted curve.

UniProt P43220, sequence (P43220 whole entry, looked up): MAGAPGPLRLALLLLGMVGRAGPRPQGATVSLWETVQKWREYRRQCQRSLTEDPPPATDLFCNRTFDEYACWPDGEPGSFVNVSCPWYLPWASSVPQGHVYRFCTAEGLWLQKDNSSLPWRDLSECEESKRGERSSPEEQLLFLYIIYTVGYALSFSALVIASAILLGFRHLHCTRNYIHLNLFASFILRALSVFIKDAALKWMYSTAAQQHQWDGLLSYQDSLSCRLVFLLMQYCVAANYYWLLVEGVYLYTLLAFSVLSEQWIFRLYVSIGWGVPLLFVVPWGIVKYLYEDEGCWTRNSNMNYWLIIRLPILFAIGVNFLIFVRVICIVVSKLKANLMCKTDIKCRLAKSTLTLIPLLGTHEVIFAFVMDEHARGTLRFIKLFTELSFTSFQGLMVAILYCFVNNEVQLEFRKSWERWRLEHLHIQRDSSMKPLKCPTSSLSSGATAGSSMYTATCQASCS

Potency, inconclusive:
COc1ccc(C=NNC(=S)NC23CC4CC(CC(C4)C2)C3)cc1OC 10 µM [inhibitor, partial curve], CCOC(=O)C1=CCN(S(=O)(=O)c2ccccc2C)C1c1cccc(Cl)c1 (stereo not given) 28.2 µM [inhibitor, single point], Cc1cc2oc(C(=O)N(Cc3ccco3)Cc3ccccc3Cl)c(C)c2cc1C 28.2 µM [inhibitor, single point], CC(C)C[C@H]1CNC(=S)N1CC1CCN(CCCC2CCCC2)CC1 12.6 µM [inhibitor, partial curve, poor fit], Cc1ccc2c(C)c(C(=O)N3CCN(Cc4ccc5c(c4)OCO5)CC3)oc2c1C 4.47 µM [inhibitor, full curve], COCC(C)NC(=O)CSc1nc(-c2ccccc2)c(-c2ccccc2)o1 (stereo not given) 12.6 µM [inhibitor, partial curve, poor fit], CS(=O)(=O)Nc1cccc(NC(=O)c2cccc3c(-c4ccc(F)c(F)c4)coc23)c1 11.2 µM [inhibitor, single point], Nc1nc(Sc2ccc([N+](=O)[O-])c3nonc23)c2[nH]cnc2n1 28.2 µM [inhibitor, single point], O=C(Nc1ccc(F)c(Cl)c1)c1ccccc1NC(=O)C1CCCCC1C(=O)O (stereo not given) 4.47 µM [inhibitor, partial curve], COc1ccc(NS(=O)(=O)c2ccc(C(=O)N3CCN(c4ccc(F)cc4)CC3)cc2)cc1 11.2 µM [inhibitor, single point], O=C(c1ccccc1Oc1ccccc1)N1CCN(c2ccccc2F)CC1 10 µM [inhibitor, partial curve, poor fit], COCc1ccc(O)c2ncccc12 0.794 µM [inhibitor, full curve, poor fit], CCc1cccc(C)c1NC(=O)c1cnn(-c2ccc(OC)cc2)c1C1CCN(C(=O)OC(C)(C)C)CC1 10 µM [inhibitor, partial curve, poor fit], FC(F)(F)c1cccc(N2CCN(C(=S)NC3CCCCC3)CC2)c1 8.91 µM [inhibitor, partial curve, poor fit], Cc1oc(C(C)(C)C)cc1C(=O)Nc1ccc(N2CCOCC2)cc1 10 µM [inhibitor, partial curve, poor fit], COc1cccc(NC(=O)COc2c(F)c(F)c(C(F)(F)F)c(F)c2F)c1 11.2 µM [inhibitor, single point], CCCn1c(C2CCCN2c2nc(-c3ccc(C)cc3)cs2)nc2ccccc21 (stereo not given) 28.2 µM [inhibitor, single point], O=C(NCc1ccc(Cl)cc1)C1CCCCN1S(=O)(=O)c1ccccc1 (stereo not given) 7.94 µM [inhibitor, partial curve, poor fit], COc1ccc(C(=O)Nc2cccnc2Sc2ccc(Cl)cc2)cc1 28.2 µM [inhibitor, single point], Cc1cccc2c1NC(C)CC2C (stereo not given) 10 µM [inhibitor, single point], Cc1ccc(NC(=O)Nc2cc(S(=O)(=O)N(C)C)ccc2C)cc1 10 µM [inhibitor, partial curve, poor fit], Cc1cc(Br)cc2c1N(Cc1ccccc1OC(C)C)C(=O)C2=O 20 µM [inhibitor, single point], Cc1cc(C)c(S(=O)(=O)NCC(c2ccco2)S(=O)(=O)c2cccs2)c(C)c1 (stereo not given) 28.2 µM [inhibitor, single point], CCCc1cc(=O)n2[nH]cc(-c3ccc(Cl)cc3)c2n1 22.4 µM [inhibitor, single point], Cc1ccc(N2CC(C(=O)Nc3ccccc3N3CCCC3)CC2=O)cc1 (stereo not given) 3.55 µM [inhibitor, partial curve, poor fit], CC(C)Oc1ccc(CNC(=O)c2ccc(NC(=O)N3CC(C)Sc4ccccc43)cc2)cc1 (stereo not given) 3.55 µM [inhibitor, full curve], CC1CCN(c2nnc(-c3cccs3)c3ccccc23)CC1 6.31 µM [inhibitor, partial curve, poor fit], CC1CCC(n2c(=S)[nH]c3ccccc3c2=O)CC1 (stereo not given) 10 µM [inhibitor, partial curve, poor fit], COc1ccc(-c2noc(CN3CCN(C(=O)c4cccs4)CC3)n2)c(OC)c1OC 28.2 µM [inhibitor, single point], C/C(=N\NC(=O)c1ccc(Cl)c(Cl)c1)c1cccc(NC(=O)C(C)C)c1 28.2 µM [inhibitor, single point], O=C(CNc1ccc(F)cc1Cl)Nc1cccc(S(=O)(=O)N2CCCCC2)c1 14.1 µM [inhibitor, partial curve, poor fit], COc1ccccc1C(=O)Nc1ccc2c(c1)nc(CCNC(=O)c1ccccc1)n2C 3.55 µM [inhibitor, partial curve, poor fit], O=C1C=CC(=O)N1c1ccc2c(c1)C(NC(=O)C(F)(F)F)c1ccccc1-2 (stereo not given) 7.94 µM [inhibitor, partial curve, poor fit], C/C(=N\NC(=O)c1c(Br)c(C)nn1C)c1ccc(NC(=O)C(C)Oc2ccc(Cl)cc2C)cc1 (stereo not given) 14.1 µM [inhibitor, partial curve, poor fit], Cc1cccc(Cn2c(COc3ccccc3)nc3ccccc32)c1 12.6 µM [inhibitor, partial curve, poor fit], O=C(CSc1nnc(-c2cccs2)n1-c1ccccc1)N1CCCc2ccccc21 6.31 µM [inhibitor, partial curve, poor fit], Cc1ccc2c(c1)cc(C(=O)NCc1ccccc1C)n2C 1.26 µM [inhibitor, partial curve, poor fit], CCCCN(CC)C(=O)Cc1ccc(Br)cc1 28.2 µM [inhibitor, single point], Cc1cccc(N2C(=O)N3[C@@H]4c5ccccc5OC[C@@H]4[C@@H](c4ccccc4)[C@]3(C)C2=O)c1 10 µM [inhibitor, single point], CC(C)Oc1ccc(CNC(=O)C2CCN(Cc3cc4ccccc4n3Cc3ccccc3)CC2)cc1 2 µM [inhibitor, partial curve, poor fit], CN(c1ccccc1)c1ccc(/C=C/[N+](=O)[O-])cc1 11.2 µM [inhibitor, partial curve, poor fit], Cc1ccc(C(=O)N2CCN(S(=O)(=O)c3ccc(C)cc3)CC2)cc1 12.6 µM [inhibitor, single point], CC1CCN(c2ccc(S(=O)(=O)N3CCC(C)CC3)cc2N)CC1 12.6 µM [inhibitor, single point], CCn1c2ccccc2c2cc([N+](=O)[O-])ccc21 28.2 µM [inhibitor, single point], Cc1cc(OCCCN2CCC(C(O)(c3ccccc3)c3ccccc3)CC2)ccc1Br 11.2 µM [inhibitor, single point], Cc1ccc(N(C)S(=O)(=O)c2ccc3c(c2)CC(C)N3C(=O)C2CC2)cc1 (stereo not given) 28.2 µM [inhibitor, single point], C[C@H](CO)N1C[C@H](C)[C@@H](CN(C)C(=O)Nc2ccc3c(c2)OCO3)Oc2c(NC(=O)Nc3ccc(C(F)(F)F)cc3)cccc2C1=O 6.31 µM [inhibitor, partial curve, poor fit]

Potency, active:
CC(C(=O)NCCC1=CCCCC1)c1ccc([N+](=O)[O-])cc1 (stereo not given) 10 µM, O=C1/C(=C/c2ccccc2)SC(=S)N1CCCC(=O)N1CCCCC1CCO (stereo not given) 5.01 µM

Potency, inactive:
O=C1c2ccccc2C(=O)c2c(NCc3cccnc3)cccc21, OCCc1c[nH]c2ccc(OCc3ccccc3)cc12, CCOC(=O)c1ccc(NC(=O)N(CC)CC)cc1, CCCOc1ccc(-c2c(C(=O)N/N=C/c3ccc(C)o3)nnn2-c2nonc2N)cc1, O=C(CC(=O)Nc1ccccc1F)Nc1ccccc1F, CCOC(=O)CNC(=O)c1cc2c(=O)n3cccc(C)c3nc2n1C, CC(=O)Oc1ccc2c(c1)Oc1cc(OC(C)=O)ccc1C21OC(=O)c2ccccc21, O=C(NC(=S)Nc1cccc2c(O)cccc12)c1ccco1, Cc1occc1C(=O)NNC(=O)c1nn(C)c(=O)c2ccccc12, CC(C)(C)c1ccc(OCCOCCn2c(-c3ccc(Cl)cc3)nc3ccccc3c2=O)cc1, COc1ccc(N2CCN(C(=O)CSc3nnc4n3C(C)(C)Cc3ccccc3-4)CC2)cc1, CCn1c2ccccc2c2cc(NC(=O)COc3cc(C)ccc3C)ccc21, COc1cc(CN2CCC(C(=O)N3CCN(c4ccccc4F)CC3)CC2)cc(OC)c1O, O=C(/C=C/c1cccc([N+](=O)[O-])c1)N1CCN(c2ccccn2)CC1, COc1ccc(NC(=O)Nc2ccc(F)cc2)cn1, CCCCCn1c(=O)[nH]c2cc(C(=O)NC(C)CC)ccc2c1=O (stereo not given)
